According to PubChem BioAssay AID1466 (National Center for Advancing Translational Sciences (NCATS), 2008):
Hit rate of the full screen: of about 200,000 compounds, about 10 (0.005%) were called active. Inconclusive means that the source gave no clear call. Such entries were picked first, then a sample of the others. Calls follow the shape of the dose curve; as a rule, active = well fitted inhibition curve with a large enough effect; inconclusive = small, poorly fitted or top-dose-only effect, or effect the other way, or another doubt; inactive = no such curve, though single readings can be large or run the other way. No potency is given beside an inconclusive call; the fits are too rough.
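For activity change, negative = inhibition in this document: plate controls were uninhibited enzyme wells for no effect and no-enzyme background for full effect.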
Potency is read from the fitted curve at half-maximal effect; tags tell the direction and shape of the fitted curve.

Each molecule was assayed against Lysosomal alpha-glucosidase (Homo sapiens) (UniProt P10253) (assay: qHTS Assay for Inhibitors of Human alpha-Glucosidase as a Potential Chaperone Treatment of Pompe Disease). Settings: purified human GAA, 4-MU-alpha-glucoside fluorescence; activity change, negative = inhibition: at 76.9 µM (top of the series) unless noted.
Outline: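 qHTS format, compound range up to 77 uM. Human lysosomal enzyme at 4 nM, 400 uM 4-MU glucoside substrate, pH 5.0, 20 min room temperature; fluorescence after alkaline stop gives activity normalized to controls.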
In the case of `CC(NC(=O)Nc1ccc2c(c1)OCO2)c1ccncc1` (stereo not drawn), the activity change, negative = inhibition is reported as inconclusive: 13.4% [activator]. `CCCS(=O)(=O)c1c(S(=O)(=O)CCC)c2ccc(C(N)=O)cn2c1C(=O)c1ccc(OC)cc1` was tested, and the activity change, negative = inhibition was inconclusive: 19.1% [activator]. In the case of `CC1CN(C(=O)COC(=O)c2ccc(NC(=O)CC#N)cc2)CC(C)O1` (stereo not drawn), the Potency is reported as inconclusive [activator, full curve, poor fit]. In the case of `CCCc1ncc(C(O)c2cccc3ccccc23)n1C` (stereo not drawn), the Potency is reported as inconclusive [inhibitor, single point]. `CCCC1(C(=O)OCC)NC(c2ccc(N(C)C)cc2)C2C(=O)N(c3ccc(F)cc3)C(=O)C21` (stereo not drawn) was tested, and the Potency was inconclusive [inhibitor, partial curve]. In the case of `Cc1cc(N=Cc2c(O)n(-c3ccc4c(c3)OCO4)c(=O)c3ccccc23)ccn1`, the Potency is reported as inconclusive [inhibitor, single point]. `Cc1cccn2c(=O)c3cc(C#N)c(=O)n(Cc4cccnc4)c3nc12` was tested, and the Potency was inconclusive [activator, full curve]. In the case of `CCOC(=O)Cc1csc(NC(=O)/C=C\c2ccccc2Cl)n1`, the Potency is reported as “inactive”. For `S=C(NCc1ccc(Cl)cc1)Nc1ccccc1Cl`, the Potency was inconclusive [inhibitor, single point]. With `CC(C)=CCC/C(C)=C/Cc1c(O)ccc(C(=O)/C=C/c2ccc(O)cc2)c1O` the Potency was inconclusive [inhibitor, full curve, poor fit]. For `COc1ccccc1NC(=S)N(Cc1ccco1)Cc1cc2cc(C)ccc2[nH]c1=O`, the Potency was inconclusive [inhibitor, single point]. With `O=C(CCN1C(=O)C2C3CC(C(Br)C3Br)C2C1=O)OCC(=O)c1ccccc1` (stereo not drawn) the activity change, negative = inhibition was inconclusive: -16.5% [inhibitor]. With `Cc1ccc(S(=O)(=O)NCCCCCC(=O)Nc2c(C)n(C)n(-c3ccccc3)c2=O)cc1` the Potency was “inactive”. For `CN(CC(=O)Nc1ccc(S(=O)(=O)N2CCCC2)cc1)Cc1c(F)cccc1Cl`, the Potency was inconclusive [inhibitor, single point]. In the case of `COc1ccc(/C=C2/N=C3CCCCCN3C2=O)cc1OC`, the activity change, negative = inhibition is reported as inconclusive: -18.3% [inhibitor]. For `CC(C)CC(=O)NC(Nc1ccc([N+](=O)[O-])cc1)C(Cl)(Cl)Cl` (stereo not drawn), the Potency was inconclusive [inhibitor, partial curve, poor fit]. For `CCOCCCn1c(=NC(=O)c2ccc(OC)c(OC)c2)c(C#N)cc2c(=O)n3cccc(C)c3nc21`, the activity change, negative = inhibition was inconclusive: 20.2% [activator]. With `CCOC(=O)C1(Cc2cccc(OC)c2)CCN(Cc2ccc(OC)c(OC)c2)CC1` the Potency was “inactive”. With `CN(C)/C=N/C(=S)Nc1ccc(Cl)c(Cl)c1` the activity change, negative = inhibition was inconclusive: 3.14% [activator]. In the case of `Cc1ccc(S(=O)(=O)N2CCOCC2)cc1NC(=O)c1cccc(S(=O)(=O)N2CCCC2)c1`, the Potency is reported as inconclusive [inhibitor, single point]. For `CC(=O)[C@@]1(O)CC[C@H]2[C@@H]3C[C@H](C)C4=CC(=O)C=C[C@]4(C)[C@@]3(F)[C@@H](O)C[C@@]21C`, the Potency was inconclusive [inhibitor, full curve]. `CC(C)C(=O)NC(Nc1cccc([N+](=O)[O-])c1)C(Cl)(Cl)Cl` (stereo not drawn) was tested, and the activity change, negative = inhibition was inconclusive: 6.13% [activator]. For `CCn1c(-c2ccccc2)csc1=Nc1ccc(O)cc1`, the Potency was “inactive”. In the case of `Cc1cc(C)n(-c2n[nH]c(C)c2[N+](=O)[O-])n1`, the activity change, negative = inhibition is reported as inconclusive: 15.6% [activator]. In the case of `O=C(NN=C1CCCC1)c1n[nH]c2c1CCCC2`, the Potency is reported as “inactive”. For `Cc1cc(C)c2c(n1)sc1c(=O)n(-c3ccccc3)c(=O)[nH]c12`, the Potency was inconclusive [activator, partial curve]. In the case of `CC(C)CN(CCCNC(=O)CN1C(=O)COc2ccc(S(=O)(=O)N3CCCC3)cc21)CC(C)C`, the Potency is reported as inconclusive [inhibitor, partial curve, poor fit]. In the case of `Cc1ccc(-c2cc(C(=O)O)c3cc(Br)ccc3n2)o1`, the activity change, negative = inhibition is reported as inconclusive: 15.3% [activator]. `CSC1=N/C(=C\c2cccc(F)c2)C(=O)S1` was tested, and the activity change, negative = inhibition was inconclusive: -18.1% [inhibitor]. For `CCN(C(=O)Cn1cc(C(C)=O)c2ccccc21)c1ccccc1`, the activity change, negative = inhibition was inconclusive: 1.81% [activator]. For `CCn1c2ccc(F)cc2c2nnc(NN)nc21`, the Potency was inconclusive [inhibitor, full curve]. With `Cc1cccc(NC(=O)CN2C(=O)S/C(=C\c3cc(C)n(C)c3C)C2=O)c1` the Potency was inconclusive [inhibitor, partial curve, poor fit]. With `CN(C)c1cccc(C(=O)OCC(=O)Nc2ccccc2-c2ccccc2)c1` the Potency was inconclusive [inhibitor, partial curve, poor fit]. `Cc1cc(-c2nc3ncccc3o2)ccc1NC(=S)NC(=O)c1ccco1` was tested, and the Potency was inconclusive [activator, partial curve]. With `CCOC(=O)C1CCN(c2c(NCc3ccc(C(=O)N(C)Cc4ccccc4)cc3)c(=O)c2=O)CC1` the Potency was inconclusive [inhibitor, single point]. `CCOC(=O)c1cnc2cc3c(cn2c1=O)CCCC3` was tested, and the Potency was inconclusive [activator, partial curve]. With `CC1SCC(=O)N(CC(=O)Nc2ccc3c(c2)OCCO3)C1=O` (stereo not drawn) the Potency was inconclusive [activator, full curve, poor fit]. In the case of `CC1=C(C(=O)OCC2CCCO2)C(c2ccccc2)C2=C(CC(C)(C)CC2=O)N1` (stereo not drawn), the Potency is reported as inconclusive [activator, partial curve, poor fit]. With `N#Cc1ccc(-c2csc(NNC(=O)c3ccc(Br)cc3)n2)cc1` the Potency was “inactive”. `CCOC(=S)SCC(=O)Nc1nccs1` was tested, and the Potency was inconclusive [inhibitor, full curve]. `CC(=O)c1ccc(N(C(=O)c2ccco2)C(C(=O)NC2CCCC2)c2ccc(N3CCOCC3)cc2)cc1` (stereo not drawn) was tested, and the activity change, negative = inhibition was inconclusive: 16.7% [activator]. In the case of `CCc1cc2c(CN3CCN(CC)CC3)cc(=O)oc2cc1O`, the activity change, negative = inhibition is reported as inconclusive: 159% [activator]. For `Cc1c(CN2CCC(CO)(CCOc3ccccc3)CC2)[nH]c2c(Cl)cccc12`, the Potency was inconclusive [inhibitor, single point]. With `Cc1cc(C(=O)CN2C(=O)C(=O)N(Cc3ccccc3)C2=O)c(C)n1-c1ccc2c(c1)OCCO2` the Potency was inconclusive [inhibitor, single point]. With `CCCCNC(=S)Nc1cccc(C(C)=O)c1` the Potency was inconclusive [inhibitor, single point]. With `Cc1cc(=O)oc2cc(NS(=O)(=O)c3ccc(F)cc3)ccc12` the Potency was inconclusive [activator, partial curve]. In the case of `CCc1n[nH]c(=S)n1/N=C/c1cc(Br)c(OC)cc1OC`, the Potency is reported as inconclusive [inhibitor, full curve]. With `Cc1cccc(-c2cc3nc(-c4ccccc4)cc(N4CCC5(CC4)OCCO5)n3n2)c1` the Potency was inconclusive [activator, partial curve]. With `Cc1ccc(-c2nnn(CC(=O)N(CCN3CCOCC3)C(C(=O)NC(C)(C)C)c3ccco3)n2)cc1` (stereo not drawn) the Potency was inconclusive [inhibitor, single point]. In the case of `COC(C(=O)Nc1ccc(S(=O)(=O)Nc2c(C)cccc2C)cc1)c1ccccc1` (stereo not drawn), the Potency is reported as inconclusive [inhibitor, partial curve]. For `Cc1nn(-c2ccccc2)c(Cl)c1/C=N/NC(=O)C1COc2ccccc2O1` (stereo not drawn), the activity change, negative = inhibition was inconclusive: -21.9% [inhibitor]. With `CCc1ccc(S(=O)(=O)NCC(O)COc2ccc(OC)cc2)cc1` (stereo not drawn) the Potency was inconclusive [inhibitor, full curve]. With `CN(CC(=O)N1CCc2ccccc2C1)S(=O)(=O)c1ccc2c(c1)c(=O)n(C)c(=O)n2C` the Potency was inconclusive [inhibitor, full curve, poor fit]. With `O=C(Nc1nnc(SCC(=O)N2CCOCC2)s1)c1ccccc1Cl` the Potency was inconclusive [inhibitor, single point]. With `CCN(CC)c1ccc2cc(C(N)=O)c(=N)oc2c1` the Potency was inconclusive [inhibitor, partial curve, poor fit]. `N#C/C(=C/c1ccc(N2CCOCC2)o1)C(=O)N1CCOCC1` was tested, and the Potency was inconclusive [inhibitor, partial curve]. For `Cc1cc(C)c2c(n1)nn1c(C)c(CCC(=O)NCc3ccco3)c(C)nc21`, the Potency was inconclusive [activator, single point]. For `Cc1ccc(CC(=O)Nc2ccccc2-c2ccccc2)cc1C`, the Potency was inconclusive [inhibitor, single point]. In the case of `COC(=O)C1=C(C)NC2=C(C(=O)CC(C)(C)C2)C1c1cccc(C)n1` (stereo not drawn), the Potency is reported as inconclusive [activator, single point]. In the case of `COc1cc(/C=C2/NC(=O)N(Cc3ccccc3F)C2=O)ccc1O`, the Potency is reported as “inactive”. `CCC(C)C(=O)Nc1nc(C)c(-c2csc(Nc3cc(OC)ccc3OC)n2)s1` (stereo not drawn) was tested, and the Potency was inconclusive [inhibitor, single point]. In the case of `CCN(CC)S(=O)(=O)c1ccc2oc(C(=O)NC3CCCc4ccccc43)c(C)c2c1` (stereo not drawn), the Potency is reported as inconclusive [inhibitor, partial curve, poor fit]. With `CCC(C)NC(=O)c1c(N)n(/N=C/c2ccccn2)c2nc3ccccc3nc12` (stereo not drawn) the Potency was inconclusive [inhibitor, single point].
